Data reported in article PMC10135230.
Results are given in words; binding and its absence hold for the method and conditions named. In cells and extracts the contact can be indirect. Some results given as binding are weak or reduced against the parent protein; the word gives no strength. For some assays here: Tags and fused reporters may be left off the sequences shown. Blank lines part the entries; values can stand above or below the molecule they belong to.

By UniProt entry, the sequences of proteins in these tests, tags left out. Residues count along the entry.
UniProt O75460, residues 19-977: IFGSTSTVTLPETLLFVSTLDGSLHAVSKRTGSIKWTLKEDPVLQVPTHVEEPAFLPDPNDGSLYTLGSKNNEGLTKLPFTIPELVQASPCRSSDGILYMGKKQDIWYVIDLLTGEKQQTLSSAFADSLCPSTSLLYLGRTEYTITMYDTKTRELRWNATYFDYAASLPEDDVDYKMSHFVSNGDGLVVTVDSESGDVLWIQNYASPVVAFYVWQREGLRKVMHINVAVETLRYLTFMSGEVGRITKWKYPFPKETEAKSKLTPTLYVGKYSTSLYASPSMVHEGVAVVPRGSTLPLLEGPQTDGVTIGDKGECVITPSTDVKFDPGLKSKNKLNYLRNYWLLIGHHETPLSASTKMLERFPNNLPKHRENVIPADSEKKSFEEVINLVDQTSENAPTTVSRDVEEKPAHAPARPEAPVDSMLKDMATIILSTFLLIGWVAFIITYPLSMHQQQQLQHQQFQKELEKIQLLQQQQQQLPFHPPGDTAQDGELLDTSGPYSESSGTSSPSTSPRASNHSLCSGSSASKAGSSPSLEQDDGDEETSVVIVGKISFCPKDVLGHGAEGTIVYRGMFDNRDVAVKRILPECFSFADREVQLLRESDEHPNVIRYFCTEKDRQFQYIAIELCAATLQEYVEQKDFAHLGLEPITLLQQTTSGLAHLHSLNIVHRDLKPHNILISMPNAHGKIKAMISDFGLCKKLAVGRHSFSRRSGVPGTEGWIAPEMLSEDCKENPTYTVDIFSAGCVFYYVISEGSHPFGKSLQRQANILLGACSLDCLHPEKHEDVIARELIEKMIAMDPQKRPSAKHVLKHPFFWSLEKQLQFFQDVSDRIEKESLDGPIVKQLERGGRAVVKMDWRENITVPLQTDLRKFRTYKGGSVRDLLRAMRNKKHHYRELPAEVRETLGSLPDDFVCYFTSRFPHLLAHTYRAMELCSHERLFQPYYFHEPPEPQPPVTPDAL

Assays:
[1] = molecular target: T1, Fortilin (translationally controlled tumor protein, TCTP), endogenous (human (endogenous in SH-SY5Y)) (UniProt P13693); test: co-IP; IP with anti-Fortilin antibody and protein A/G agarose beads from cell lysates (shRNA-NC and OTUD3 knockdown cells); HEPES lysis buffer (20 mM HEPES pH 7.2, 50 mM NaCl, 1 mM NaF, 0.5% Triton X-100), 4 °C; blots for IRE1α and OTUD3; endogenous proteins
T1 sequence: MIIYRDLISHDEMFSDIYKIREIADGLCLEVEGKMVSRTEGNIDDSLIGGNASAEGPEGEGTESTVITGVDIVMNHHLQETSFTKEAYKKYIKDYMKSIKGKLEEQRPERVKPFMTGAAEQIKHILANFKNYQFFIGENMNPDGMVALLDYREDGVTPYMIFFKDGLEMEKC

Myc-Fortilin = molecular target: T2, Myc-Fortilin (UniProt P13693); test: co-IP; exogenous Co-IP of OTUD3 domain constructs with Fortilin in transfected cells; HEPES lysis buffer, protein A/G agarose beads, 4 °C
T2 sequence: T1 sequence

[2] = molecular target: inositol-requiring enzyme 1α (IRE1α), endogenous (human (endogenous in SH-SY5Y)) (UniProt O75460); test: co-IP; IP with anti-IRE1α antibody and protein A/G agarose beads from lysates of shRNA-NC and OTUD3 knockdown cells; HEPES lysis buffer (20 mM HEPES pH 7.2, 50 mM NaCl, 1 mM NaF, 0.5% Triton X-100), 4 °C; blots for Bip, Fortilin and OTUD3; endogenous proteins

- binding [1]: binds
Molecule: inositol-requiring enzyme 1α (IRE1α), endogenous (from UniProt O75460 19-977)

- binding (Myc-Fortilin): binds
B1: Flag-OTU (OTU domain of OTUD3) (domain or fragment, UniProt Q5T2D3 65-189)
chain: LKLREVPGDGNCLFRALGDQLEGHSRNHLKHRQETVDYMIKQREDFEPFVEDDIPFEKHVASLAKPGTFAGNDAIVAFARNHQLNVVIHQLNAPLWQIRGTEKSSVRELHIAYRYGEHYDSVRRI

- binding [1]: binds
- binding [2]: no binding
B2: OTU domain-containing protein 3 (OTUD3), endogenous (enzyme, UniProt Q5T2D3 1-398)
chain: MSRKQAAKSRPGSGSRKAEAERKRDERAARRALAKERRNRPESGGGGGCEEEFVSFANQLQALGLKLREVPGDGNCLFRALGDQLEGHSRNHLKHRQETVDYMIKQREDFEPFVEDDIPFEKHVASLAKPGTFAGNDAIVAFARNHQLNVVIHQLNAPLWQIRGTEKSSVRELHIAYRYGEHYDSVRRINDNSEAPAHLQTDFQMLHQDESNKREKIKTKGMDSEDDLRDEVEDAVQKVCNATGCSDFNLIVQNLEAENYNIESAIIAVLRMNQGKRNNAEENLEPSGRVLKQCGPLWEEGGSGARIFGNQGLNEGRTENNKAQASPSEENKANKNQLAKVTNKQRREQQWMEKKKRQEERHRHKALESRGSHRDNNRSEAEANTQVTLVKTFAALNI

- binding [2]: binds
B3: Fortilin (translationally controlled tumor protein, TCTP), endogenous (protein, UniProt P13693 1-172)
chain: T1 sequence
